# In all, about 33,000 sequences were measured (“E-score (-0.5 to 0.5)”: median about -0.012, highest 2% from about 0.27 on). Some of the results follow.
# Target: T1, Vhr1 (UniProt P40522)
# T1 sequence: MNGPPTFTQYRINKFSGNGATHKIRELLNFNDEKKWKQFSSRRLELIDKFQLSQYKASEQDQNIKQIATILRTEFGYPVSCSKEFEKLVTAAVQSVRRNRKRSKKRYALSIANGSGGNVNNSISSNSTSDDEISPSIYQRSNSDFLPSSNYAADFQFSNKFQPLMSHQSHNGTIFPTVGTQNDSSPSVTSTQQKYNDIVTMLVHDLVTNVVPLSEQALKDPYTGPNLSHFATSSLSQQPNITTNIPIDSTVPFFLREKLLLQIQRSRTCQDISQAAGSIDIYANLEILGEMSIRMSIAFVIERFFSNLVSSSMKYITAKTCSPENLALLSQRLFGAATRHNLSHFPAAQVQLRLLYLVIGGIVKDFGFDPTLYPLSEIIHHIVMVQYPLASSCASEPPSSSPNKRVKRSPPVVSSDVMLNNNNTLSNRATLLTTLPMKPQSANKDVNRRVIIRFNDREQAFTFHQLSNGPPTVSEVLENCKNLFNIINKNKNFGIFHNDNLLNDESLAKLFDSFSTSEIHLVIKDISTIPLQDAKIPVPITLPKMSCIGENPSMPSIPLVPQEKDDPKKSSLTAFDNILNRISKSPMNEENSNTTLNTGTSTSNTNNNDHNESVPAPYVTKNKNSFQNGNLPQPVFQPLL
# Assay: PBM E-score (8-mer binding enrichment) (E-score (-0.5 to 0.5)); higher = stronger / more preferred TF binding; most listed sequences are background and not binding sites
# Details: protein concentration: 200 nM; construct: GST-full length
# Outline: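 Universal all-10-mer Agilent arrays, double-stranded by primer extension on fresh or once-stripped slides, were probed with about 100-200 nM GST-tagged yeast transcription factors made by PURExpress. Fluorescent anti-GST detected bound protein, and masliner normalised the scans. E-scores from the Universal PBM Analysis Suite were given to each ungapped eight-base word pooled with its reverse complement.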
row,Sequence,PBM E-score
1,AGTTGCAT,-0.0357
2,CGTCTGCC,-0.0382
3,ATTCTTGC,0.0525
4,GCTCGGAC,-0.176
5,GCCGCAAA,0.0311
6,TATTAGAA,0.0146
7,ACCCTAAA,0.0127
8,AGGAAAAA,-0.254
9,CCCATGGG,0.285
10,GTATACTA,0.124
11,GCAGGTAC,-0.0161
12,ACCATGGG,0.108
13,ATGCTACC,0.103
14,AAAGCGAT,-0.0512
15,CGCTACAG,-0.109
16,ATTCGATA,0.102
17,CAAGACGC,0.0697
18,GGAAAAAA,-0.304
19,CACCAAGG,0.0118
20,GAGAAAAA,-0.253
21,TCCGGTAA,-0.173
22,CGTAATGC,-0.0238

row,Sequence,PBM E-score
1,AATACCTA,0.0084
2,TCAAGAAA,-0.134
3,AGAAGCAT,-0.0793
4,AAGGTTCT,-0.0107
5,CTATGTCC,-0.024
6,CCTGGTTC,0.0927
7,AAGAAAAC,-0.199
8,ATATCGAA,0.152
9,ATACGGAC,-0.057
10,ACGATCTC,-0.167
11,CAGCGGGA,0.151
12,AGAAAATC,-0.0625
13,ACGATTTC,-0.0302
14,AGATCGAT,0.0197
15,ACACACCG,0.223
16,AGTCTCTG,0.121
17,ATCAAGTC,0.0941
18,ACCCACAG,0.157
19,CGCGAATA,0.0128
20,CAGAAATC,-0.121
21,CAGACGTC,-0.128
22,CCGTGAAC,-0.0787

row,Sequence,PBM E-score
1,CGATTTTA,-0.0769
2,CAGTGAAC,0.161
3,CAGGTGTA,0.115
4,GCGCGGAA,0.176
5,GCTGCGTA,0.128
6,GTCCAATA,-0.0854
7,GAAGGGCC,-0.184
8,GAGACGCA,0.0673
9,GCCTGCGC,-0.00523
10,ACACCGGA,0.212
11,GACGTAAA,-0.236
12,GTAACCAA,0.103
13,ACTTTCAA,-0.117
14,GATAAGAC,-0.185
15,GAGACATC,0.194
16,GACTACTA,0.328
17,CATGCGGG,0.155
18,CAAGCGTC,-0.0792
19,AGGCGGGA,0.0435
20,ATGGCTAC,0.181
21,AAGAAAAT,-0.157
22,CAGGTACG,0.0833

row,Sequence,PBM E-score
1,CGCAATCA,0.254
2,CTATAAGC,-0.104
3,AACCCCAA,-0.0945
4,ATTCCAGG,0.0397
5,ACCTGTAC,-0.0909
6,CCCGTCCA,-0.184
7,AGACCTCG,-0.0554
8,GATAAGTA,-0.123
9,CCATAGTC,0.225
10,GAATGGTC,-0.0402
11,ACAATGGT,0.0754
12,AAGCGATT,-0.0711
13,CGAACGAC,0.0833
14,CCTGACAA,0.0179
15,AGGCTGTC,-0.174
16,TACGGCAA,0.0195
17,CCAGGGTC,0.0218
18,GATCCGCA,-0.0169
19,CCCGCATC,-0.0755
20,ACTTCGTG,0.196

# From the supplement of paper PMC3334620
